The other results are listed elsewhere or left out. The full chains were built here from the parent and the listed change. Values near 0.05 are background.
B1: TEV protease; numbered along this chain (parent)
chain: MGESLFKGPRDYNPISSSICHLTNESDGHTTSLYGIGFGPFIITNKHLFRRNNGTLVVQSLHGVFKVKDTTTLQQHLVDGRDMIIIRMPKDFPPFPQKLKFREPQREERICLVTTNFQTKSMSSMVSDTSCTFPSGDGIFWKHWIQTKDGQCGSPLVSTRDGFIVGIHSASNFTNTNNYFTSVPKNFMELLTNQEAQQWVSGWRLNADSVLWGGHKVFMVKPEEPFQPVKEATQL

Variants of: B1
Assay: raw area under fraction-flipped curve 0-4 h after induction (AUC4h, not background-subtracted), DNA-recorder readout of cleavage of the substrate (dimensionless); higher = more cleavage of the substrate by the protease variant
Conditions: temperature: 34 °C; time window: 0-4 h after rhamnose induction
Experimental: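 In vivo DNA recorder in E. coli TOP10(DE3) ΔrhaA at 34 °C. Each TEVp single-site mutant (parent TEVp 0) is paired with a single-site variant of the 7-mer TEVs (canonical ENLYFQ|S). The substrate sits between flexible linkers in a Bxb1-sfGFP-TEVs-SsrA fusion, so cleavage stabilises Bxb1 and speeds flipping of a recombination array, read by NGS. The value is the raw area under the fraction-flipped curve over 0-4 h after rhamnose induction (AUC4h), with ≥20 reads per time point. It is not background-subtracted; inactive controls average about 0.047.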
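Note: Bxb1 expression induced with 0.2% (w/v) L-rhamnose at OD600 near 0.5, cultures sampled hourly, flipped fraction per protease–substrate barcode pair counted by paired-end Illumina sequencing.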

| Variant | area with substrate ENLYFAS | area with substrate ENLYFCS | area with substrate ENLYFDS | area with substrate ENLYFES | area with substrate ENLYFFS | area with substrate ENLYFGS | area with substrate ENLYFHS | area with substrate ENLYFIS | area with substrate ENLYFKS | area with substrate ENLYFMS | area with substrate ENLYFNS | area with substrate ENLYFPS | area with substrate ENLYFRS | area with substrate ENLYFSS | area with substrate ENLYFTS | area with substrate ENLYFVS | area with substrate ENLYFWS | area with substrate ENLYFYS | area with substrate ENLYFLS |
| --- | --- | --- | --- | --- | --- | --- | --- | --- | --- | --- | --- | --- | --- | --- | --- | --- | --- | --- | --- |
| MGELLFKGPRDYNPISSSICHLTNESDGHTTSLYGIGFGPFIITNKHLFRRNNGTLVVQSLHGVFKVKDTTTLQQHLVDGRDMIIIRMPKDFPPFPQKLKFREPQREERICLVTTNFQTKSMSSMVSDTSCTFPSGDGIFWKHWIQTKDGQCGSPLVSTRDGFIVGIHSASNFTNTNNYFTSVPKNFMELLTNQEAQQWVSGWRLNADSVLWGGHKVFMVKPEEPFQPVKEATQL [S4L] | 0.0621 | 0.0623 | 0.0592 | 0.0617 | 0.0656 | 0.0592 | 0.0645 | 0.0614 | 0.0679 | 0.0652 | 0.0512 | 0.064 | 0.0671 | 0.0618 | 0.061 | 0.0645 | 0.0539 | 0.0613 |  |
| MGNSLFKGPRDYNPISSSICHLTNESDGHTTSLYGIGFGPFIITNKHLFRRNNGTLVVQSLHGVFKVKDTTTLQQHLVDGRDMIIIRMPKDFPPFPQKLKFREPQREERICLVTTNFQTKSMSSMVSDTSCTFPSGDGIFWKHWIQTKDGQCGSPLVSTRDGFIVGIHSASNFTNTNNYFTSVPKNFMELLTNQEAQQWVSGWRLNADSVLWGGHKVFMVKPEEPFQPVKEATQL [E3N] | 0.0641 | 0.059 |  | 0.0466 |  | 0.0631 |  |  | 0.0256 | 0.0668 |  | 0.0359 | 0.0656 |  |  |  |  |  |  |
| MGESLFKGPRDVNPISSSICHLTNESDGHTTSLYGIGFGPFIITNKHLFRRNNGTLVVQSLHGVFKVKDTTTLQQHLVDGRDMIIIRMPKDFPPFPQKLKFREPQREERICLVTTNFQTKSMSSMVSDTSCTFPSGDGIFWKHWIQTKDGQCGSPLVSTRDGFIVGIHSASNFTNTNNYFTSVPKNFMELLTNQEAQQWVSGWRLNADSVLWGGHKVFMVKPEEPFQPVKEATQL [Y12V] | 0.0591 |  | 0.054 | 0.064 | 0.053 | 0.0802 |  | 0.0567 | 0.0676 | 0.0678 |  | 0.0545 | 0.0768 | 0.0554 | 0.05 |  | 0.0518 |  |  |
| MGESLFKGPRDINPISSSICHLTNESDGHTTSLYGIGFGPFIITNKHLFRRNNGTLVVQSLHGVFKVKDTTTLQQHLVDGRDMIIIRMPKDFPPFPQKLKFREPQREERICLVTTNFQTKSMSSMVSDTSCTFPSGDGIFWKHWIQTKDGQCGSPLVSTRDGFIVGIHSASNFTNTNNYFTSVPKNFMELLTNQEAQQWVSGWRLNADSVLWGGHKVFMVKPEEPFQPVKEATQL [Y12I] | 0.0625 |  | 0.0455 | 0.0625 | 0.0594 | 0.063 | 0.0529 | 0.0561 | 0.0689 | 0.082 |  | 0.0485 |  | 0.0521 |  | 0.0556 | 0.057 |  | 0.0734 |
| MGESLFKWPRDYNPISSSICHLTNESDGHTTSLYGIGFGPFIITNKHLFRRNNGTLVVQSLHGVFKVKDTTTLQQHLVDGRDMIIIRMPKDFPPFPQKLKFREPQREERICLVTTNFQTKSMSSMVSDTSCTFPSGDGIFWKHWIQTKDGQCGSPLVSTRDGFIVGIHSASNFTNTNNYFTSVPKNFMELLTNQEAQQWVSGWRLNADSVLWGGHKVFMVKPEEPFQPVKEATQL [G8W] | 0.0628 | 0.0714 |  |  | 0.0644 |  |  | 0.0593 | 0.0749 |  |  | 0.0457 | 0.0636 |  | 0.0703 | 0.0718 |  |  |  |
| MGESLFKGQRDYNPISSSICHLTNESDGHTTSLYGIGFGPFIITNKHLFRRNNGTLVVQSLHGVFKVKDTTTLQQHLVDGRDMIIIRMPKDFPPFPQKLKFREPQREERICLVTTNFQTKSMSSMVSDTSCTFPSGDGIFWKHWIQTKDGQCGSPLVSTRDGFIVGIHSASNFTNTNNYFTSVPKNFMELLTNQEAQQWVSGWRLNADSVLWGGHKVFMVKPEEPFQPVKEATQL [P9Q] | 0.064 | 0.0557 |  | 0.0491 |  |  | 0.0427 | 0.0602 | 0.0583 |  | 0.0699 | 0.0528 |  |  | 0.0688 |  | 0.0682 |  |  |
| MGESDFKGPRDYNPISSSICHLTNESDGHTTSLYGIGFGPFIITNKHLFRRNNGTLVVQSLHGVFKVKDTTTLQQHLVDGRDMIIIRMPKDFPPFPQKLKFREPQREERICLVTTNFQTKSMSSMVSDTSCTFPSGDGIFWKHWIQTKDGQCGSPLVSTRDGFIVGIHSASNFTNTNNYFTSVPKNFMELLTNQEAQQWVSGWRLNADSVLWGGHKVFMVKPEEPFQPVKEATQL [L5D] | 0.0609 | 0.105 |  | 0.0604 | 0.0784 |  | 0.0522 | 0.0348 | 0.0522 | 0.0644 | 0.0657 | 0.0672 |  | 0.0763 |  | 0.0556 | 0.043 |  | 0.053 |
| MGESMFKGPRDYNPISSSICHLTNESDGHTTSLYGIGFGPFIITNKHLFRRNNGTLVVQSLHGVFKVKDTTTLQQHLVDGRDMIIIRMPKDFPPFPQKLKFREPQREERICLVTTNFQTKSMSSMVSDTSCTFPSGDGIFWKHWIQTKDGQCGSPLVSTRDGFIVGIHSASNFTNTNNYFTSVPKNFMELLTNQEAQQWVSGWRLNADSVLWGGHKVFMVKPEEPFQPVKEATQL [L5M] | 0.0513 |  | 0.0535 | 0.0684 |  |  |  | 0.0554 | 0.0355 | 0.0783 | 0.0679 | 0.0587 | 0.0497 |  | 0.0644 |  | 0.057 | 0.0576 | 0.0613 |
| MGESLFKGPRDYCPISSSICHLTNESDGHTTSLYGIGFGPFIITNKHLFRRNNGTLVVQSLHGVFKVKDTTTLQQHLVDGRDMIIIRMPKDFPPFPQKLKFREPQREERICLVTTNFQTKSMSSMVSDTSCTFPSGDGIFWKHWIQTKDGQCGSPLVSTRDGFIVGIHSASNFTNTNNYFTSVPKNFMELLTNQEAQQWVSGWRLNADSVLWGGHKVFMVKPEEPFQPVKEATQL [N13C] | 0.0658 | 0.0622 |  | 0.0625 | 0.0649 | 0.067 | 0.067 | 0.0592 | 0.0556 | 0.0571 | 0.0632 | 0.0559 | 0.0537 | 0.0635 | 0.0829 | 0.0474 | 0.0608 | 0.0575 | 0.0532 |

— the supplement of paper PMC12217912
